Data from patent US20240228578A1 (Five Prime, published 2024).

Biological target: T1, CTLA-4 (UniProt P16410 36-161, limits assumed)
T1 construct: construct not described; also called cytotoxic T-lymphocyte-associated antigen-4
T1 sequence (looked up): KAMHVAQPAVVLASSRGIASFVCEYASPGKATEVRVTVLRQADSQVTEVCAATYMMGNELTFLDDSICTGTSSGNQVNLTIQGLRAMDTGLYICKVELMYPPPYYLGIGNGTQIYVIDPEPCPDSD
Experiment: CTLA-4 binding ELISA

B1: human CD80 ECD:human IgG Fc fusion protein comprising the amino acid sequence of SEQ ID NO:5 (hCD80ECD:hIgG1Fc) (Fc fusion)
chain: VIHVTKEVKEVATLSCGHNVSVEELAQTRIYWQKEKKMVLTMMSGDMNIWPEYKNRTIFDITNNLSIVILALRPSDEGTYECVVLKYEKDAFKREHLAEVTLSVKADFPTPSISDFEIPTSNIRRIICSTSGGFPEPHLSWLENGEELNAINTTVSQDPETELYAVSSKLDFNMTTNHSFMCLIKYGHLRVNQTFNWNTTKQEHFPDN[… human IgG1 Fc with changes …]
notes: also called Human CD80 ECD Human Fc IgG1 WT
EC50: 0.034 µg/mL
